Laboratory results reported in ChEMBL document CHEMBL1961873, “Compounds: GSK PKIS; Assays: Nanosyn kinase panel” (2012).
Shown are results outside the selection of strong results, which stands elsewhere.

Assays:
[1] = biological target: T1, Muscle, skeletal receptor tyrosine-protein kinase (Homo sapiens) (UniProt O15146); settings: at 1 µM;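 note: reported value is the mean percent inhibition of MuSK kinase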
T1 sequence (whole entry): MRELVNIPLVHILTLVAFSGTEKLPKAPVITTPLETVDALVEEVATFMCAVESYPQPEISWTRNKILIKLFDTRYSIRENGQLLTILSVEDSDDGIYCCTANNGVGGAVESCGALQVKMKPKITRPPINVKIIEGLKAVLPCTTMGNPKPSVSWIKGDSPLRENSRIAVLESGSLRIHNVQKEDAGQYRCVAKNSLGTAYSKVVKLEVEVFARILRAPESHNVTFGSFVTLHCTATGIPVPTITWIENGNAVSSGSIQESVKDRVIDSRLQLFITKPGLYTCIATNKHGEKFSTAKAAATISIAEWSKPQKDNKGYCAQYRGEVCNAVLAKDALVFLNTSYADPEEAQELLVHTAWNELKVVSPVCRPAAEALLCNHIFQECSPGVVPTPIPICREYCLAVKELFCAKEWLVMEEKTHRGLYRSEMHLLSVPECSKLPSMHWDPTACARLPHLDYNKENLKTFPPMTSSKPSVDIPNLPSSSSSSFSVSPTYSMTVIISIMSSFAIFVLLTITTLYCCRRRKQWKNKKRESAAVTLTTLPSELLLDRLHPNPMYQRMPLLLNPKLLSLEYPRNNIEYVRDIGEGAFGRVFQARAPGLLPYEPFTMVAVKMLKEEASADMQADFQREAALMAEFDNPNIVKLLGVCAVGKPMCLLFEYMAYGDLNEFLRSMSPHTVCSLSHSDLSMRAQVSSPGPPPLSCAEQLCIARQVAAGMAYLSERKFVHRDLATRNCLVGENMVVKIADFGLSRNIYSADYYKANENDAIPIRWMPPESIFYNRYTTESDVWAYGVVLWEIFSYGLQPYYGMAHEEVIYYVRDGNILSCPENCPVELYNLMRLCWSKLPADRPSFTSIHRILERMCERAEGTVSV

[2] = biological target: Platelet-derived growth factor receptor alpha (Homo sapiens) (UniProt P16234); settings: at 0.1 µM
[3] = biological target: Platelet-derived growth factor receptor alpha (Homo sapiens) (UniProt P16234); settings: at 1 µM
[4] = system: Platelet-derived growth factor receptor alpha (Homo sapiens), P16234 [D842V]; settings: at 0.1 µM
[5] = system: Platelet-derived growth factor receptor alpha (Homo sapiens), P16234 [D842V]; settings: at 1 µM
[6] = system: Platelet-derived growth factor receptor alpha (Homo sapiens), P16234 [T674I]; settings: at 0.1 µM
[7] = system: Platelet-derived growth factor receptor alpha (Homo sapiens), P16234 [T674I]; settings: at 1 µM
[8] = system: Platelet-derived growth factor receptor alpha (Homo sapiens), P16234 [V561D]; settings: at 0.1 µM
[9] = system: Platelet-derived growth factor receptor alpha (Homo sapiens), P16234 [V561D]; settings: at 1 µM
[10] = biological target: Platelet-derived growth factor receptor beta (Homo sapiens) (UniProt P09619); settings: at 0.1 µM;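 note: reported value is the mean percent inhibition of the kinase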
Sequence of UniProt P09619 (P09619 whole entry): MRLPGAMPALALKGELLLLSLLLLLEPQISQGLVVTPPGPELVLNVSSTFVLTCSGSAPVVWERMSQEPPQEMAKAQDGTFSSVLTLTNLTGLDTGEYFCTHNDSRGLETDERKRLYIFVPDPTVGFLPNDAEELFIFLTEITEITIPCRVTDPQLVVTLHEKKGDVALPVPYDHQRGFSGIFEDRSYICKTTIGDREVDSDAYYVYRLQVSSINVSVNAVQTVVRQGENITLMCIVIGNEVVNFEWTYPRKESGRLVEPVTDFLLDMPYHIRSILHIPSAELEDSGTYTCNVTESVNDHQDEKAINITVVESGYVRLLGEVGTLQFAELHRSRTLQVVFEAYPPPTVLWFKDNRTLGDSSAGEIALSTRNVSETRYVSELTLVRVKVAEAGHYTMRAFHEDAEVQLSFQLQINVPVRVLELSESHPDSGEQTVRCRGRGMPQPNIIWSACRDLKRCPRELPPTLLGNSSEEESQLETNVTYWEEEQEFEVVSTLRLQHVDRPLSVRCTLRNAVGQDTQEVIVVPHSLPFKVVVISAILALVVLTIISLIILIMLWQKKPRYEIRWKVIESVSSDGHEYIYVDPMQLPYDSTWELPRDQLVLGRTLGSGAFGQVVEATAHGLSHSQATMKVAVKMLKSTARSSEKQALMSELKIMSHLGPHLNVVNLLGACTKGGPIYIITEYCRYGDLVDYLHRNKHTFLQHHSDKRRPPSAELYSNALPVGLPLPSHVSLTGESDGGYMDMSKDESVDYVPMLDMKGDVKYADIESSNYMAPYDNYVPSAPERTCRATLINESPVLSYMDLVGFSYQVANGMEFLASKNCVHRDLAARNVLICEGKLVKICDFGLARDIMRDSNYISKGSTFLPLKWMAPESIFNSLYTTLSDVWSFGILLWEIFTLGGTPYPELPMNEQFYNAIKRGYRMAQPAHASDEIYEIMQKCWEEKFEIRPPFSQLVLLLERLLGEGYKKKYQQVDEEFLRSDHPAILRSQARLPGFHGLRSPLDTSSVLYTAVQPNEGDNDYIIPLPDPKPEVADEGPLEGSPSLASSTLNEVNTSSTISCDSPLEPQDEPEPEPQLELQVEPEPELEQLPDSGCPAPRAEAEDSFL

Sequence of UniProt P16234 (P16234 whole entry): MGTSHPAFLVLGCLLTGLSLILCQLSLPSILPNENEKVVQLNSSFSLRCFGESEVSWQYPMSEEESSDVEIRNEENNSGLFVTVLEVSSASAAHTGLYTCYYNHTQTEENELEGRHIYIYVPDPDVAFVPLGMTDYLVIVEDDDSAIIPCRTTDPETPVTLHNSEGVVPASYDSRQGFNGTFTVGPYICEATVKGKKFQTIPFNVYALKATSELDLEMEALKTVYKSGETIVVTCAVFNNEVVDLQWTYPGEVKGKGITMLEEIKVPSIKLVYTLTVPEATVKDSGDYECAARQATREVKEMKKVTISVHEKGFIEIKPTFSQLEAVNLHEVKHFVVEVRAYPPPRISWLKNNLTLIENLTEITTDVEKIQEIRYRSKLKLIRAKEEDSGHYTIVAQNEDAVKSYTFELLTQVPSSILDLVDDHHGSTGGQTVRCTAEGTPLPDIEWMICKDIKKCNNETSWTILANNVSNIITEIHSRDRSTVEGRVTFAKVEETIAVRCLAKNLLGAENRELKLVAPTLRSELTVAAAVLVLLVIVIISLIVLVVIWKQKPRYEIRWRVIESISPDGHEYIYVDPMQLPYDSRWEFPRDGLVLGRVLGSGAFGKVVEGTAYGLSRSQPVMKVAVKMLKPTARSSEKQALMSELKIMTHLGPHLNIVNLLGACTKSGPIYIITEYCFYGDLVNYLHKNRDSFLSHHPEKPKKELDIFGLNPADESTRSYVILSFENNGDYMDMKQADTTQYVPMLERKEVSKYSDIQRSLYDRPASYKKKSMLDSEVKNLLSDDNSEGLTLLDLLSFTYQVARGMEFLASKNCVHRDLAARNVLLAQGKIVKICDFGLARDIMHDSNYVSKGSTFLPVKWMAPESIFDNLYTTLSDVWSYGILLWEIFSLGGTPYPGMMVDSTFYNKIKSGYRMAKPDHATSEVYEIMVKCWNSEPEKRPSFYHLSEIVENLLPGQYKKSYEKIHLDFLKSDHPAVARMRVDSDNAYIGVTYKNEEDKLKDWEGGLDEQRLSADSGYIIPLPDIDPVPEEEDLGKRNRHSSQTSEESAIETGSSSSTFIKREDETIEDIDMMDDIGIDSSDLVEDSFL

SMILES | inhibition [1] [%] | inhibition [2] [%] | inhibition [3] [%] | inhibition [4] [%] | inhibition [5] [%] | inhibition [6] [%] | inhibition [7] [%] | inhibition [8] [%] | inhibition [9] [%] | inhibition [10] [%]
CC(C)(C)c1ccc(Oc2nccc(-c3c(-c4ccc(F)cc4)ncn3C3CCNCC3)n2)cc1 | 4.98 | 5.23 | 12.2 | 3.92 | 6.46 | 3.57 | 8.88 | 5.04 | 7.97 | 3.31
Cc1cccc(Oc2nccc(-c3c(-c4ccc(F)cc4)ncn3C3CCNCC3)n2)c1C | 1.7 | 7.03 | 10.4 | 2.45 | 3.93 | 3.47 | 5.02 | 3.63 | 3.86 | 4.28
Fc1ccc(-c2ncn(C3CCNCC3)c2-c2ccnc(Oc3cccc(F)c3)n2)cc1 | 7.23 | 8.78 | 12.4 | 4.11 | 3.6 | 2.81 | 6.48 | 4.4 | 6.11 | 8.14
COc1ccccc1C1=C(Nc2ccccc2)C(=O)NC1=O | 6.34 | 6.85 | 13.8 | 1.38 | 2.72 | 5.71 | 6.97 | -1.2 | 1.31 | 3.25
O=C1NC(=O)C(c2cccc([N+](=O)[O-])c2)=C1Nc1cc(Cl)c(O)c(Cl)c1 | -3.35 | 3.16 | 4.4 | 2.41 | 3.86 | 3.38 | 2.92 | 2.5 | 1.7 | -0.34
O=C(O)c1ccc(Oc2nccc(-c3c(-c4ccc(F)cc4)ncn3C3CCNCC3)n2)cc1 | 8.9 | 6.72 | 11.2 | 2.24 | 2.45 | 4 | 9.13 | 2.78 | 2.76 | 4.49
COc1ccccc1Oc1nccc(-c2c(-c3ccc(F)cc3)ncn2C2CCNCC2)n1 | 3.71 | 9.26 | 13.9 | 3.39 | 4.03 | 3.65 | 9.72 | 4.97 | 5.27 | 8.12
CS(=O)(=O)c1ccc(Oc2nccc(-c3c(-c4ccc(F)cc4)ncn3C3CCNCC3)n2)cc1 | 2.52 | 4.16 | 7.85 | 4.71 | 4.47 | 3.65 | 5.19 | 3.55 | 3.19 | -0.81
Fc1ccc(-c2ncn(C3CCNCC3)c2-c2ccnc(Oc3ccc(Cl)cc3)n2)cc1 | 1.51 | 2.56 | 4.67 | 3.1 | 2.35 | 1.24 | 2.52 | 5.65 | 4.01 | 2.08
O=C1NC(=O)C(c2ccccc2Cl)=C1Nc1cc(Cl)c(O)c(Cl)c1 | 4.9 | 8.08 | 14.6 | -0.39 | 1.1 | 6.1 | 6.84 | 0.98 | -0.18 | 7.6
O=C1NC(=O)C(c2ccccc2)=C1Nc1ccccc1 | 5 | 10.8 | 19.4 | 2.38 | 4.8 | 6.76 | 9.77 | 6.64 | 4.67 | 4.86
NC(=O)CCc1ccccc1Oc1nccc(-c2c(-c3ccc(F)cc3)ncn2C2CCNCC2)n1 | -2.49 | -0.3 | 2.35 | 1.4 |  | 0.05 | 2.24 | 2.85 | 5.29 | -0.36
Fc1ccc(-c2ncn(C3CCNCC3)c2-c2ccnc(Oc3cccc(C(F)(F)F)c3)n2)cc1 | -1.08 | 9.14 | 14.6 | 3.71 | 5.48 | 6.65 | 13.6 | 3.34 | 5.74 | 2.23
Fc1ccc(Oc2nccc(-c3c(-c4ccc(F)cc4)ncn3C3CCNCC3)n2)cc1 | 7.6 | 6.7 | 10.6 | 0.7 | 3.02 | 1.38 | 7.05 | 2.18 | 4.43 | 3.81
